Substrate in the data set: O=C(O)C(=O)O
As to the kind of experiment: purified protein. The settings on record: 5 mM ATP, 2 mM CoA, 5 mM MgCl2, HEPES pH 8, room temperature.

B1: LsOCS (oxalyl-CoA synthetase) (Lathyrus sativus) (protein)
chain: ETATTLTGLLQSVAKTFPSRRGISLAGKFDLTHSHLNELVESAADHLISAGIKPNDVVALTFPNTVEYVILFLAVIRVRATAAPLNAAYTAEEFEFYLSDSESKLLLTPLEGNKPAQDAASKLSIPLGSASLTKSEEETKLTISLKHPESGLKSDSVNSVAKLINEPSDVALFLHTSGTTSRPKGVPLTQHNLVSSVKNIQSVYQLTESDSTVIVLPLFHVHGLIAGLLSSLGSGAAVVLPAAGRFSASTFWKDMIQYNATWYTAVPTIHQIILDRHLNNPEPAYPKLRFIRSCSASLAPVILGRLEESFGAPVLEAYAMTEASHLMSSNPLPQNGPHKAGSVGKPVGQEMAILDESGRVLEAGVNGEVCIRGENVTKGYKNNEAANTAAFLFGWFHTGDIGYFDSDGYLHLVGRIKELINRGGEKISPIEVDAVLLSHPDVAQAVAFGIPDQKYGEEIHCAIIPREGSNIDAEEVLTFCKKNLASFKVPKKVFITDSLPKTATGKILRRLVAEHFVSKV
In general, Km refers to the concentration of substrate that gives half-maximal velocity. As to B1, the Km amounted to 71.5 ± 13.3 µM.
